Results as given in the supplement of paper PMC5499739.
Over roughly 16,000 sequences, “Z-score” has its median near -0.37; the highest 2% begin near 3.2. Some of the results follow.

These sequences were tested on RBM10 RRM1-ZnF (GST-tagged construct) (assay: RNAcompete 7-mer binding Z-score; higher = stronger binding preference).
Procedure, shortened: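 Bound RNA was identified by microarray hybridisation after GST-tagged RBM10 constructs (20 pmol) had been mixed with 1.5 nmol of a designed pool of 241 399 RNAs up to 41 nt, transcribed from microarray-derived DNA templates. Binding ran for 30 min at 4°C in 1 ml Hepes pH 7.8 buffer with KCl, NaCl, glycerol, DTT, BSA and glutathione Sepharose beads, with four 2-min washes at 4°C afterwards. For every heptamer motif, a one-sided Z-score for enrichment was computed across the probes that contained it.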

Going from CGCGCGU to CUUAUUG, the “RNAcompete 7-mer binding Z-score” value falls from -0.249 to -0.785.

First: UGUGACU
Second: UUGUAGU
The “RNAcompete 7-mer binding Z-score” value of the first is higher: -0.217 for the first, -0.227 for the second.

Going from UGCUAUA to UAUUUAU, the “RNAcompete 7-mer binding Z-score” value falls from -0.438 to -0.506.

First: UCCACGC
Second: GCAGUUG
The “RNAcompete 7-mer binding Z-score” value of the first is lower: -0.655 for the first, 0.384 for the second.

Compared with AGCUAAA, GAAACGU is higher in “RNAcompete 7-mer binding Z-score” value: -0.0772 for the first, -0.00246 for the second.

Compared with CCCGUUG, GCUAAUU is lower in “RNAcompete 7-mer binding Z-score” value: -0.565 for the first, -0.688 for the second.

First: CAACUCC
Second: GGAAAUG
The “RNAcompete 7-mer binding Z-score” value of the first is lower: -0.626 for the first, 3.11 for the second.

First: CUGGUAC
Second: UUUUGAU
The “RNAcompete 7-mer binding Z-score” value of the first is higher: -0.386 for the first, -0.629 for the second.

Going from UGAGACC to AAGAAAC, the “RNAcompete 7-mer binding Z-score” value rises from -0.353 to -0.0122.

Going from AGUGUCU to AAUGAAG, the “RNAcompete 7-mer binding Z-score” value rises from -0.402 to 0.332.

First: UAAGAUG
Second: CGGCAAA
The “RNAcompete 7-mer binding Z-score” value of the first is higher: 0.43 for the first, 0.157 for the second.

First: CGAUGUG
Second: ACCGCCA
The “RNAcompete 7-mer binding Z-score” value of the first is higher: 0.267 for the first, -0.461 for the second.

First: UGGCUCU
Second: GGCCCCU
The “RNAcompete 7-mer binding Z-score” value of the first is higher: -0.405 for the first, -0.451 for the second.

Going from GCUGUUG to CUAUACG, the “RNAcompete 7-mer binding Z-score” value falls from -0.191 to -0.62.

Compared with GCUUCUA, UGCCACC is higher in “RNAcompete 7-mer binding Z-score” value: -0.756 for the first, -0.532 for the second.

Going from UCCGGAA to GAUGGGC, the “RNAcompete 7-mer binding Z-score” value rises from -0.347 to 2.15.

Compared with CUUCGAC, AAUGCAU is higher in “RNAcompete 7-mer binding Z-score” value: -0.72 for the first, -0.61 for the second.

First: UAGUCGU
Second: GCAGAGC
The “RNAcompete 7-mer binding Z-score” value of the first is lower: -0.223 for the first, 0.342 for the second.

Compared with UAGAACU, GAGUGGC is higher in “RNAcompete 7-mer binding Z-score” value: -0.155 for the first, 1.53 for the second.

First: GUCGGAA
Second: GAUCGUG
The “RNAcompete 7-mer binding Z-score” value of the first is higher: 0.8 for the first, 0.153 for the second.

First: CUUUUAC
Second: UGGCUAU
The “RNAcompete 7-mer binding Z-score” value of the first is lower: -0.87 for the first, -0.0804 for the second.

First: CUGGCAA
Second: CAUCUGU
The “RNAcompete 7-mer binding Z-score” value of the first is higher: -0.477 for the first, -0.893 for the second.

First: UCUCUUG
Second: GACUAGA
The “RNAcompete 7-mer binding Z-score” value of the first is lower: -0.714 for the first, -0.0285 for the second.

Going from CGAGACA to GCCACUU, the “RNAcompete 7-mer binding Z-score” value falls from -0.327 to -0.863.

Compared with CUGCCUA, GCGCUCU is higher in “RNAcompete 7-mer binding Z-score” value: -0.659 for the first, -0.636 for the second.

Going from UCUUACA to CUGGGAA, the “RNAcompete 7-mer binding Z-score” value rises from -0.733 to 1.47.

First: CAGGCGG
Second: CCCUAUG
The “RNAcompete 7-mer binding Z-score” value of the first is higher: 1.47 for the first, -0.779 for the second.

Going from UAUUCCC to AUCCAUA, the “RNAcompete 7-mer binding Z-score” value falls from -0.779 to -0.912.

First: ACACUUG
Second: UGGGAUA
The “RNAcompete 7-mer binding Z-score” value of the first is lower: -0.535 for the first, 3.05 for the second.

First: ACCGAAU
Second: CCGCUGA
The “RNAcompete 7-mer binding Z-score” value of the first is lower: -0.668 for the first, -0.584 for the second.

Going from AAGUAGG to AACGCAG, the “RNAcompete 7-mer binding Z-score” value falls from 2.37 to -0.0512.

Compared with AAAAUAU, CCGCACG is lower in “RNAcompete 7-mer binding Z-score” value: -0.324 for the first, -0.522 for the second.

Going from UGUACUU to UUGCAAG, the “RNAcompete 7-mer binding Z-score” value rises from -0.737 to -0.197.

First: UCCAGCG
Second: UAAGAUU
The “RNAcompete 7-mer binding Z-score” value of the first is higher: -0.412 for the first, -0.448 for the second.

First: UUUUAGG
Second: CCGGAAU
The “RNAcompete 7-mer binding Z-score” value of the first is higher: 0.111 for the first, -0.227 for the second.

First: AAGCCUC
Second: CGUGUCU
The “RNAcompete 7-mer binding Z-score” value of the first is lower: -0.74 for the first, -0.581 for the second.

First: UCUUGAU
Second: AUCUAUG
The “RNAcompete 7-mer binding Z-score” value of the first is lower: -0.857 for the first, -0.418 for the second.

Compared with ACCAUAA, ACGCUCG is higher in “RNAcompete 7-mer binding Z-score” value: -0.73 for the first, -0.636 for the second.

First: GGCGAUA
Second: UAGACUG
The “RNAcompete 7-mer binding Z-score” value of the first is higher: 0.472 for the first, -0.103 for the second.

First: UCUGCAC
Second: CGAGGUG
The “RNAcompete 7-mer binding Z-score” value of the first is lower: -0.503 for the first, 2 for the second.

First: ACCGGAG
Second: ACGAACG
The “RNAcompete 7-mer binding Z-score” value of the first is higher: 0.677 for the first, -0.181 for the second.

First: AAUAGGA
Second: GCCCGCU
The “RNAcompete 7-mer binding Z-score” value of the first is higher: 1.56 for the first, -0.441 for the second.

Going from CAACUAA to AUAUGGG, the “RNAcompete 7-mer binding Z-score” value rises from -0.561 to 2.89.

Compared with UUGGACC, UGCGCUA is lower in “RNAcompete 7-mer binding Z-score” value: 0.0268 for the first, -0.47 for the second.

First: AACGGUU
Second: UUACGCG
The “RNAcompete 7-mer binding Z-score” value of the first is higher: 1.1 for the first, -0.331 for the second.

Compared with CCUUGAG, GAAUUUU is higher in “RNAcompete 7-mer binding Z-score” value: -0.72 for the first, -0.642 for the second.
